Measured values as given in PMC4336329 (PLoS ONE, 2015).
The whole screen tested about 310,000 compounds, of which about 14,000 (4.5%) showed an effect of 50% or more. The effect is printed as a negative number. This is one part of the list.

Target: human ether-à-go-go-related gene (hERG) potassium channel (human, UniProt Q12809)
Test: primary screen, population patch clamp on CHO cells stably expressing hERG
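Note: peak tail current of the secondary pulse compared with the same well before compound.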

Chain of human ether-à-go-go-related gene (hERG) potassium channel (Q12809 whole entry, looked up): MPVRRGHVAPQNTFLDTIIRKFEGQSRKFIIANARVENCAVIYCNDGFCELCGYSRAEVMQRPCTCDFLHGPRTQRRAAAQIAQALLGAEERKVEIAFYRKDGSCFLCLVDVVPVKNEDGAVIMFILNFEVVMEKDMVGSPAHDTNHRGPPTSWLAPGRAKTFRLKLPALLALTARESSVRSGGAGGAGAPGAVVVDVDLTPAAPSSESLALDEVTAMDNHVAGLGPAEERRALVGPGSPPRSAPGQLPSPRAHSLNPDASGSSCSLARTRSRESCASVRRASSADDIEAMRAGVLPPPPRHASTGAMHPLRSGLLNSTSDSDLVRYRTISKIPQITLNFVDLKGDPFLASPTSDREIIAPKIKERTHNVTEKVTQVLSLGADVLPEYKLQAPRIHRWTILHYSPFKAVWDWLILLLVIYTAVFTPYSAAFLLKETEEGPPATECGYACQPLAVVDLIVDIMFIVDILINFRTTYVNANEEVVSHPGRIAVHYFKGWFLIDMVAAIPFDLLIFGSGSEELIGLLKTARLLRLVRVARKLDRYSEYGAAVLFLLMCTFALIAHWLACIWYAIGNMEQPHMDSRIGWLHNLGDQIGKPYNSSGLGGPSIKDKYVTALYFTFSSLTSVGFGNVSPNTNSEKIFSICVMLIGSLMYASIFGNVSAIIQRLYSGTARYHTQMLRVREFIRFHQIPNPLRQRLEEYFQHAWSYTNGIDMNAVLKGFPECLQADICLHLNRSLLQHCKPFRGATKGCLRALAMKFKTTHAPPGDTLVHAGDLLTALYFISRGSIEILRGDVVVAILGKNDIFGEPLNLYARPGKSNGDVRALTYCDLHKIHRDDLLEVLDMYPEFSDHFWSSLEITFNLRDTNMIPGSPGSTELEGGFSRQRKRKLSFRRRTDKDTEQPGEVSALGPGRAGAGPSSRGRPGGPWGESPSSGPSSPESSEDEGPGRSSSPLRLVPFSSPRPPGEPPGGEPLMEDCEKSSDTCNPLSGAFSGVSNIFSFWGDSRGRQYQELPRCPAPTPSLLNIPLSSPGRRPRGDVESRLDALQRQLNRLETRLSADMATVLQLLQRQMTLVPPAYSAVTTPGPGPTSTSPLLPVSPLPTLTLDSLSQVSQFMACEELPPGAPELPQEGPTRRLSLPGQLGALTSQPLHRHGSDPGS

Which “hERG current change (%, negative = inhibition) at 10uM” value does the source give for `CN(Cc1cccnc1)C(=O)c1cc(COc2ccc3ncccc3c2)on1` here?
Its value is 0.745%.

For `O=C(COC(=O)c1cc(-c2cccs2)nn1-c1ccccc1)Nc1ccc(F)c([N+](=O)[O-])c1`, which “hERG current change (%, negative = inhibition) at 10uM” value is on record?
The value was 7.9%.

With `N#CCCN(C(=O)COC(=O)C1CCN(S(=O)(=O)c2ccc3c(c2)OCCO3)CC1)c1ccccc1` as the molecule, how does the “hERG current change (%, negative = inhibition) at 10uM” value read?
Its value is -0.2%.

Which “hERG current change (%, negative = inhibition) at 10uM” value does the source give for `CCCc1cc(=O)oc2cc(OCC(=O)Nc3ccc(S(N)(=O)=O)cc3)ccc12` here?
Its value is 23.1%.

For `NC(=O)C1CCN(C(=O)CSc2ncccn2)CC1`, which “hERG current change (%, negative = inhibition) at 10uM” value is on record?
Its value is 12.7%.

For `COC(=O)[C@H](C)NC(=O)Nc1ccc(OC)c(OC)c1`, which “hERG current change (%, negative = inhibition) at 10uM” value is on record?
The value was 3.73%.

For `O=C(NC(=O)c1c(F)cccc1F)O/N=C1\CCCc2occc21`, which “hERG current change (%, negative = inhibition) at 10uM” value is on record?
Its value is 17.9%.

`COc1ccc2c(c1)[nH]c1c(=O)n(CCN3CCCC3)cnc12` was tested. Which “hERG current change (%, negative = inhibition) at 10uM” value did it give?
The value was -46.3%.

With `CCN(CC)CCNC(=O)c1sc2ncn(CC(=O)Nc3ccc(C)c(Cl)c3)c(=O)c2c1C` as the molecule, how does the “hERG current change (%, negative = inhibition) at 10uM” value read?
Its value is -51.8%.

How did the “hERG current change (%, negative = inhibition) at 10uM” value turn out when `CN(CCC#N)C(=O)COC(=O)/C=C/c1cccs1` was run?
Its value is 6.84%.

For `CCC(=O)OC1(C)C(=O)C=C2C=C(CCCCNC(=O)OC(C)(C)C)OC=C2C1=O` (stereo not drawn), which “hERG current change (%, negative = inhibition) at 10uM” value is on record?
The value was 6.58%.

How did the “hERG current change (%, negative = inhibition) at 10uM” value turn out when `COc1ccc(CC(=O)NNS(=O)(=O)c2cccc([N+](=O)[O-])c2)cc1OC` was run?
The value was 18.6%.

Which “hERG current change (%, negative = inhibition) at 10uM” value does the source give for `CCOC(=O)C(NC(=O)c1ccc(Cl)cc1Cl)(Nc1ccc(C)cc1)C(F)(F)F` (stereo not drawn) here?
The value was 3.51%.

`O=C1NC[C@H](CC2CCCCC2)N(CC2CCCCC2)C1=O` was tested. Which “hERG current change (%, negative = inhibition) at 10uM” value did it give?
Its value is -9.63%.

With `COc1ccc(N2CCN(CCCNC(=O)c3cc4sccc4n3C)CC2)cc1` as the molecule, how does the “hERG current change (%, negative = inhibition) at 10uM” value read?
Its value is -70.7%.

With `COc1ccc(CC(=O)Nc2nc(-c3cc(OC)ccc3OC)cs2)cc1` as the molecule, how does the “hERG current change (%, negative = inhibition) at 10uM” value read?
The value was 5.41%.

For `C/C(=N\Nc1nc2ccccc2[nH]1)c1ccc2c(c1)OCCO2`, which “hERG current change (%, negative = inhibition) at 10uM” value is on record?
The value was -3.96%.

With `CC(C)(C)C1CCc2c(sc(N)c2C(N)=O)C1` (stereo not drawn) as the molecule, how does the “hERG current change (%, negative = inhibition) at 10uM” value read?
Its value is -2.58%.

For `NNC(=O)C(Cc1c[nH]c2ccccc12)NC(=O)c1ccccc1` (stereo not drawn), which “hERG current change (%, negative = inhibition) at 10uM” value is on record?
The value was 2.77%.

How did the “hERG current change (%, negative = inhibition) at 10uM” value turn out when `Cc1cc2c(cc1C)CSC(c1ccc(O)cc1)SC2` was run?
The value was 22.8%.

With `Cc1c(C)c(C)c(S(=O)(=O)n2[nH]c(=O)c(CCO)c2C)c(C)c1C` as the molecule, how does the “hERG current change (%, negative = inhibition) at 10uM” value read?
The value was -14.4%.

With `COCC1CCN(C(=O)c2ccc3oc(Cc4ccccc4)nc3c2)C1` (stereo not drawn) as the molecule, how does the “hERG current change (%, negative = inhibition) at 10uM” value read?
Its value is -0.23%.

With `CCC(=NCC1CCCO1)c1c(O)n(-c2ccccc2C)c(=O)[nH]c1=O` (stereo not drawn) as the molecule, how does the “hERG current change (%, negative = inhibition) at 10uM” value read?
Its value is 16.7%.

Which “hERG current change (%, negative = inhibition) at 10uM” value does the source give for `C=CCn1c(NCc2cc(Cl)ccc2O)nc2ccccc21` here?
The value was -0.405%.

Which “hERG current change (%, negative = inhibition) at 10uM” value does the source give for `CCC(=O)NC(Nc1cccc(C)n1)(C(F)(F)F)C(F)(F)F` here?
Its value is 10.6%.

`COc1cccc(/C=N\Nc2nncc(-c3ccccc3)n2)c1` was tested. Which “hERG current change (%, negative = inhibition) at 10uM” value did it give?
The value was -1.22%.

With `CCOc1ccc(NC(=O)Nc2ccc(NC(C)=O)cc2)cc1` as the molecule, how does the “hERG current change (%, negative = inhibition) at 10uM” value read?
Its value is 25.3%.

Which “hERG current change (%, negative = inhibition) at 10uM” value does the source give for `COc1ccccc1-n1c(/C=C/c2ccccn2)nc2ccccc2c1=O` here?
The value was 5.91%.

For `COc1cc(CNC(=O)CCC(=O)N2C[C@H]3C[C@H](C2)c2cccc(=O)n2C3)cc(OC)c1OC`, which “hERG current change (%, negative = inhibition) at 10uM” value is on record?
The value was 7.77%.

With `COc1cccc(OC)c1C(=O)O/N=C(\N)c1ccncc1` as the molecule, how does the “hERG current change (%, negative = inhibition) at 10uM” value read?
Its value is 2.52%.

`CCOc1ccc(C2CC(c3cccc(OC)c3)Nc3nc(N)nn32)cc1` (stereo not drawn) was tested. Which “hERG current change (%, negative = inhibition) at 10uM” value did it give?
Its value is -26%.

With `Cc1cc2c(C)nc(Cc3ccccc3)nc2o1` as the molecule, how does the “hERG current change (%, negative = inhibition) at 10uM” value read?
The value was 14.7%.

For `CCOC(=O)/C(C#N)=C1\C=CN(C)C(C)=N1`, which “hERG current change (%, negative = inhibition) at 10uM” value is on record?
Its value is 4.97%.

For `N#Cc1cccn1-c1nccc(-c2cccs2)n1`, which “hERG current change (%, negative = inhibition) at 10uM” value is on record?
Its value is -4.22%.

How did the “hERG current change (%, negative = inhibition) at 10uM” value turn out when `CCN(CC)CCNC(=O)Cn1nc(-c2ccc(C)cc2)ccc1=O` was run?
Its value is -14.2%.

With `Cc1ccc(CN2C(=O)CCC2C(=O)NCCN2CCOCC2)cc1` (stereo not drawn) as the molecule, how does the “hERG current change (%, negative = inhibition) at 10uM” value read?
Its value is 3.18%.

How did the “hERG current change (%, negative = inhibition) at 10uM” value turn out when `O=C(Nc1ccc2c(c1)OCO2)C1CCN(S(=O)(=O)Cc2ccccc2)CC1` was run?
The value was 10.5%.

Which “hERG current change (%, negative = inhibition) at 10uM” value does the source give for `CC(=O)N1c2ccc(S(=O)(=O)N(C)C3CCCCC3)cc2CC1C` (stereo not drawn) here?
The value was -21.6%.

For `Cc1ccc(S(=O)(=O)N(C)CC(=O)NCc2ccncc2)cc1`, which “hERG current change (%, negative = inhibition) at 10uM” value is on record?
The value was -13.7%.

Which “hERG current change (%, negative = inhibition) at 10uM” value does the source give for `CCOc1ccc(N(CC)C(=O)Cc2c(C(=O)O)n(C)c3ccccc23)cc1` here?
Its value is 16.8%.

For `O=C(O)COc1ccc2c(c1)OCCO2`, which “hERG current change (%, negative = inhibition) at 10uM” value is on record?
Its value is 8.17%.

Which “hERG current change (%, negative = inhibition) at 10uM” value does the source give for `Cc1oc(-c2ccccc2F)nc1CS(=O)(=O)CC(=O)NCCN1CCCC1` here?
Its value is 12.4%.

How did the “hERG current change (%, negative = inhibition) at 10uM” value turn out when `Cc1sc2nc(SCC(=O)O)[nH]c(=O)c2c1C` was run?
The value was 16.2%.

With `CCCCN(CC)CCNC(=O)c1[nH]c(C)c(C(C)=O)c1C` as the molecule, how does the “hERG current change (%, negative = inhibition) at 10uM” value read?
Its value is -8.67%.

With `Cc1nn(CC(=O)OCC(=O)NC(C)c2ccccc2)c(C)c1[N+](=O)[O-]` (stereo not drawn) as the molecule, how does the “hERG current change (%, negative = inhibition) at 10uM” value read?
The value was 9.05%.

`O=C1CSC(c2cccnc2)N1Cc1cccnc1` (stereo not drawn) was tested. Which “hERG current change (%, negative = inhibition) at 10uM” value did it give?
Its value is 13.9%.

With `Cc1ccccc1OC(C)C(=O)NCCCN1CCOCC1` (stereo not drawn) as the molecule, how does the “hERG current change (%, negative = inhibition) at 10uM” value read?
Its value is 14.1%.

With `O=C(Cn1c(=O)oc2cc(S(=O)(=O)N3CCCC3)ccc21)N1CCN(c2ccccc2F)CC1` as the molecule, how does the “hERG current change (%, negative = inhibition) at 10uM” value read?
Its value is 1.28%.

For `COc1cc(NS(=O)(=O)c2ccc3ccccc3c2)c2ncccc2c1`, which “hERG current change (%, negative = inhibition) at 10uM” value is on record?
The value was 1.74%.

`CCN(CC)c1ccc(C(=O)NNC(=O)c2cccn2C)cc1` was tested. Which “hERG current change (%, negative = inhibition) at 10uM” value did it give?
The value was -12.5%.

With `NC(=O)c1nc(N2CCOCC2)nc(N2CCOCC2)n1` as the molecule, how does the “hERG current change (%, negative = inhibition) at 10uM” value read?
The value was 8.54%.

`COc1ccc(C(=O)Oc2cc(C(=S)N3CCOCC3)ccc2OC)cc1` was tested. Which “hERG current change (%, negative = inhibition) at 10uM” value did it give?
The value was 2.81%.

`COc1ccccc1N1CCN(S(=O)(=O)c2ccc(Br)s2)CC1` was tested. Which “hERG current change (%, negative = inhibition) at 10uM” value did it give?
The value was -2.54%.

Which “hERG current change (%, negative = inhibition) at 10uM” value does the source give for `CCN1C(=O)CSC1=Nc1ccc(C(=O)O)cc1` here?
The value was 25.1%.

`COc1ccc(N(CC(=O)NCc2ccccn2)S(=O)(=O)c2ccccc2[N+](=O)[O-])c(OC)c1` was tested. Which “hERG current change (%, negative = inhibition) at 10uM” value did it give?
The value was -10.3%.

With `CCCc1c(C(=O)Nc2ccc(F)cc2F)cnn1-c1ccccc1` as the molecule, how does the “hERG current change (%, negative = inhibition) at 10uM” value read?
The value was -13.5%.

With `CCCC1(C(=O)OC)NC(c2ccc(OC)c(OC)c2)C2C(=O)N(c3cccc(C(C)=O)c3)C(=O)C21` (stereo not drawn) as the molecule, how does the “hERG current change (%, negative = inhibition) at 10uM” value read?
Its value is 2.39%.
